The labels stand for the following.
B1: LDHB_HUMAN_240 (peptide)
chain: KMVVESAYEVIKLKG
B2: MANF_HUMAN_76_YA (peptide)
chain: GKENRLCYAIGATDD
B3: MBP_HUMAN_148 (peptide)
chain: SQRHGSKYLATASTM
B4: LHX3_HUMAN_227 (peptide)
chain: GRQRWGQYFRNMKRS
B5: LCK_HUMAN_505 (peptide)
chain: FTATEGQYQPQPGGG
B6: KSYK_HUMAN_296 (peptide)
chain: IISRIKSYSFPKPGH
B7: LAT2_HUMAN_118 (peptide)
chain: IDPIAMEYYNWGRFS
B8: LMTK1_HUMAN_279_YA (peptide)
chain: AGLAHCKYREDAFVT
B9: LDHA_HUMAN_239 (peptide)
chain: KQVVESAYEVIKLKG
B10: LPXN_HUMAN_22 (peptide)
chain: TLQDSDEYSNPAPLP
B11: LEPR_HUMAN_1079_YA (peptide)
chain: NDKKSIAYLGVTSIK
B12: LRRK2_HUMAN_1485 (peptide)
chain: GFPAIRDYHFVNATE
B13: LMTK2_HUMAN_295 (peptide)
chain: FSRYKEDYIETDDKK
B14: MAP9_HUMAN_12 (peptide)
chain: VFSTTLAYTKSPKVT
B15: LTK_HUMAN_672 (peptide)
chain: FGMARDIYRASYYRR
B16: LRP1_HUMAN_4473 (peptide)
chain: VEIGNPTYKMYEGGE
B17: LSR_HUMAN_535 (peptide)
chain: SRSRDDLYDQDDSRD
B18: MARE3_HUMAN_124 (peptide)
chain: ANYDGKDYNPLLARQ

The other results are listed elsewhere or left out. No stated cut-off is given here; in the data, active = 3.2 or more and inactive = the rest. The signal is at background level for most entries.
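Further: displayed peptides selected on beads carrying the immobilized SH2 domain, with library peptides lacking any tyrosine serving as negative controls.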

In one assay the target is SHP2 C-SH2 domain E139D. Kind of assay: enrichment score (SH2-bound / input frequency) (ratio); bacterial display of known human phosphotyrosine sites (pTyr-Var adds point mutants) read by sequencing; higher = stronger binding; tyrosines were phosphorylated by kinases first. The settings on record: peptide library: Human pTyr.
For B1, the enrichment score was inactive: 0.98.

As to B2, the enrichment score is inactive: 1.35.

In the case of B3, the enrichment score was inactive: 1.94.

For B4, the enrichment score is inactive: 0.738.

For the molecule B5, the enrichment score was inactive: 0.519.

As to B6, the enrichment score was inactive: 1.15.

Take B7: the enrichment score is inactive: 1.1.

Regarding B8, the enrichment score is inactive: 1.4.

Consider B9, for which the enrichment score was inactive: 0.967.

For B10, the enrichment score was inactive: 0.56.

With B11, the enrichment score was inactive: 1.13.

Regarding B12, the enrichment score is inactive: 0.67.

For B13, the enrichment score is inactive: 1.24.

As to B14, the enrichment score is inactive: 0.866.

On to B15, for which the enrichment score is inactive: 0.557.

Turning to B16, the enrichment score was inactive: 0.712.

As to B17, the enrichment score was inactive: 0.83.

For B18, the enrichment score was inactive: 0.652.

In another assay the target is SHP2 C-SH2 domain wild-type. The description is as above. The settings on record: peptide library: Human pTyr.
For the molecule B1, the enrichment score is inactive: 0.72.

With B2, the enrichment score is inactive: 1.11.

In the case of B3, the enrichment score is inactive: 2.1.

For B4, the enrichment score was inactive: 0.687.

For B5, the enrichment score is inactive: 0.487.

As to B6, the enrichment score is inactive: 0.819.

With B7, the enrichment score is inactive: 1.19.

With B8, the enrichment score was inactive: 1.06.

For B9, the enrichment score is inactive: 0.866.

As to B10, the enrichment score is inactive: 0.595.

As to B11, the enrichment score is inactive: 0.978.

B12: the enrichment score is inactive: 0.515.

Take B13: the enrichment score is inactive: 1.34.

For the molecule B14, the enrichment score is inactive: 0.909.

As for B15, the enrichment score was inactive: 0.716.

On to B16, for which the enrichment score is inactive: 0.73.

Consider B17, for which the enrichment score is inactive: 1.03.

With B18, the enrichment score was inactive: 0.588.

A further assay has as its target SHP2 N-SH2 domain L43F. The description is as above. The settings on record: peptide library: Human pTyr.
Turning to B1, the enrichment score was inactive: 0.707.

Consider B2, for which the enrichment score is inactive: 1.08.

With B3, the enrichment score was inactive: 2.2.

B4: the enrichment score is inactive: 0.959.

As for B5, the enrichment score was inactive: 0.454.

Take B6: the enrichment score was inactive: 0.9.

B7: the enrichment score is inactive: 0.892.

Take B8: the enrichment score was inactive: 1.09.

As to B9, the enrichment score is inactive: 0.682.

Regarding B10, the enrichment score was inactive: 0.493.

Turning to B11, the enrichment score was inactive: 1.

In the case of B12, the enrichment score is inactive: 0.589.

B13: the enrichment score was inactive: 1.03.

For B14, the enrichment score was inactive: 1.03.

Take B15: the enrichment score is inactive: 0.653.

For the molecule B16, the enrichment score was inactive: 0.728.

As for B17, the enrichment score was inactive: 0.769.

For B18, the enrichment score was inactive: 0.654.

For another assay, the target named is SHP2 N-SH2 domain T42A. The assay is described as above. The settings on record: peptide library: Human pTyr.
With B1, the enrichment score is inactive: 0.713.

Turning to B2, the enrichment score is inactive: 1.23.

As for B3, the enrichment score is inactive: 2.09.

On to B4, for which the enrichment score was inactive: 0.768.

In the case of B5, the enrichment score is inactive: 0.392.

B6: the enrichment score was inactive: 0.806.

In the case of B7, the enrichment score was inactive: 0.995.

In the case of B8, the enrichment score was inactive: 0.985.

Take B9: the enrichment score was inactive: 0.668.

Consider B10, for which the enrichment score is inactive: 0.401.

Regarding B11, the enrichment score was inactive: 1.01.

On to B12, for which the enrichment score was inactive: 0.586.

In the case of B13, the enrichment score is inactive: 0.835.

In the case of B14, the enrichment score is inactive: 1.12.

On to B15, for which the enrichment score was inactive: 0.605.

Consider B16, for which the enrichment score is inactive: 0.642.

On to B17, for which the enrichment score is inactive: 0.901.

Regarding B18, the enrichment score is inactive: 0.453.

The target of the next assay is SHP2 N-SH2 domain T52S. The assay is described as above. The settings on record: peptide library: Human pTyr.
Regarding B1, the enrichment score is inactive: 0.922.

As for B2, the enrichment score is inactive: 1.34.

As for B3, the enrichment score is inactive: 2.05.

As for B4, the enrichment score is inactive: 0.761.

Regarding B5, the enrichment score was inactive: 0.471.

For the molecule B6, the enrichment score is inactive: 0.879.

In the case of B7, the enrichment score is inactive: 1.08.

As for B8, the enrichment score is inactive: 1.27.

Take B9: the enrichment score is inactive: 0.683.

As for B10, the enrichment score is inactive: 0.752.

On to B11, for which the enrichment score was inactive: 1.1.

Consider B12, for which the enrichment score is inactive: 0.557.

Regarding B13, the enrichment score was inactive: 1.11.

With B14, the enrichment score was inactive: 0.923.

B15: the enrichment score was inactive: 0.495.

On to B16, for which the enrichment score was inactive: 0.822.

Consider B17, for which the enrichment score was inactive: 1.03.

Consider B18, for which the enrichment score was inactive: 0.565.

The target in the next assay is SHP2 N-SH2 domain wild-type. The description is as above. The settings on record: peptide library: Human pTyr.
On to B1, for which the enrichment score is inactive: 0.84.

As to B2, the enrichment score is inactive: 1.44.

B3: the enrichment score is inactive: 2.37.

Regarding B4, the enrichment score is inactive: 1.65.

In the case of B5, the enrichment score is inactive: 0.503.

Regarding B6, the enrichment score was inactive: 1.14.

Regarding B7, the enrichment score was inactive: 1.11.

For the molecule B8, the enrichment score is inactive: 1.71.

Turning to B9, the enrichment score is inactive: 0.91.

On to B10, for which the enrichment score was inactive: 0.537.

As for B11, the enrichment score is inactive: 0.997.

Take B12: the enrichment score was inactive: 0.546.

Turning to B13, the enrichment score was inactive: 0.844.

With B14, the enrichment score is inactive: 1.15.

B15: the enrichment score was inactive: 0.445.

For the molecule B16, the enrichment score was inactive: 0.571.

As for B17, the enrichment score was inactive: 1.12.

As to B18, the enrichment score is inactive: 0.862.

Source of the values: the supplement of paper PMC10369915.
